The chains are these.
B1: chrX:78656995:78658420:-|CDS|ENSG00000179300|control|control|control (ssRNA)
RNA: GGGAGUUCUACAGUCCGACGAUCCCUAUCUGAUCUCAUCACUCAGUGCAUCAGCCUGGAAGAGAAGCCUGAUCCCAAUCCAUUAGGGAAAAGUUCCUCUGCAGAGGGAGAUGGACCCGAGAGUCCACCAGCUGAAAACCAACCCAACAGAGGAUUGAGCAUCA
B2: chr4:56502255:56502306:+|3pUTR|ENSG00000174780|msi1_unk|total|mutant (ssRNA)
RNA: GGGAGUUCUACAGUCCGACGAUCAUUUCAGCUGGAGUCUGAAGAUACUUGUUUCUGUUCAAGUCCCACUUUAAAUUAUGUCUCCGGAGACUGAAAGUGGAAUCUUCUGAGCAUUCCUAAAUAUCUGCUCCGAAAUAUCAUGUGCAACAGAGGAUUGAGCAUCA
B3: chr16:70398910:70399011:-|5pUTR|ENSG00000157350|unk|FALSE|unique (ssRNA)
RNA: GGGAGUUCUACAGUCCGACGAUCCACUUGCAUGGAACCCAAGUCCCCUGAAGCCCCUGUGCUCUCUGUUGUGAUUGGAGUUCUAGGGCUUCCCCGCUGCCGGGAACGAGGGGCCGCCUCAUUGUCUGCUCAUGAACCACAAGGCAACAGAGGAUUGAGCAUCA
B4: chr15:100649042:100649144:+|3pUTR|ENSG00000183475|unk|total|mutant (ssRNA)
RNA: GGGAGUUCUACAGUCCGACGAUCUACCUCUGCUUUUCUUUUGCUGUGCUCUUGUUUUUAACUUAUUUUUUUUUUAACAACUGCCGUACACUACCCUGAGACACUGCAUCUCGAUUUCUAUCUCCCGUCCGAGUUGUACUUUUACAACAGAGGAUUGAGCAUCA
B5: chr10:74136666:74136778:-|CDS|ENSG00000185009|unk|total|mutant (ssRNA)
RNA: GGGAGUUCUACAGUCCGACGAUCUUCAGAGGCUGCAAUUAAGGAUAAUGUGGUCACCGUAUAUGAACUCUCCGAAGAAAUGUCCGACAAUGGAUUUCCACUGGCUACCGAAUCUAACAUUUUGAAAGAAUUGAUUAAACCACCCAACAGAGGAUUGAGCAUCA
B6: chr1:77728514:77728621:-|CDS|ENSG00000077254|unk|total|mutant (ssRNA)
RNA: GGGAGUUCUACAGUCCGACGAUCAGAUCCGCAAACCAUAACCACUGAGGAGACAAUGGAAGAAGACAAGAGCCAGUCGGAUGCCGAUUUUCAGUCUUGUGAAUCUUGCCGCAACAGUGACCGAGCAGAAAAUGAAAAUGGCUCCAACAGAGGAUUGAGCAUCA

Among the data in article PMC12136788 are binding signal values, retold here.

The list shows a part of the results.

The experiment addresses MSI1 full-length (mouse, UniProt Q61474 1-362). Nature of the experiment: nsRBNS (natural sequence RNA bind-n-seq); RBNS binding buffer (assumed for nsRBNS): 25 mM Tris pH 7.5, 150 mM KCl, 3 mM MgCl2, 0.01% Triton X-100, 500 ug/ml BSA, 20 U/ml SUPERase-In, 4 C; UNK is unkempt and MSI1 is Musashi-1; names of the RNAs are library labels; protein concentration not given here; high values mean tight binding.
Chain of UniProt Q61474 (Q61474 whole entry): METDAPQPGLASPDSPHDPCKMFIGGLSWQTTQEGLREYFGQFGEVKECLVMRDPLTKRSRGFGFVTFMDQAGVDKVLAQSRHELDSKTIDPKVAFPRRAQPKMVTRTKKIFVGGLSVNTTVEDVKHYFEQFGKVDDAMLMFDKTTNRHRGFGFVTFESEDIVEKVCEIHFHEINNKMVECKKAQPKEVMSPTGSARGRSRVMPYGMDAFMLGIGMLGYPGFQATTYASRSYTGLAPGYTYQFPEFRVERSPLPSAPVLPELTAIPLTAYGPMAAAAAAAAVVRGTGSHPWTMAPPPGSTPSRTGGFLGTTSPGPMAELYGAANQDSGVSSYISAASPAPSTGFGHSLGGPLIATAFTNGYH
As to B1, the binding signal was found to be 0.386 enrichment R. B2: the binding signal turned out to be 0.304 enrichment R. As to B3, the binding signal came out at 0.439 enrichment R. As to B4, the binding signal was 1.1 enrichment R. Regarding B5, the binding signal was determined as 0.332 enrichment R.

B6 gave a binding signal of 0.307 enrichment R.
